Test results: PubChem BioAssay AID1240 (Sanford-Burnham Center for Chemical Genomics, 2008)
Screen size: about 50,000 compounds; about 800 (1.6%) showed an effect of 50% or more. The list shows a part of the results.

The molecules below were run against Bcl-2-like protein 10 (Homo sapiens) (UniProt Q9HD36) (assay: TR3 peptide-Bcl-B binding displacers, biochemical primary FP assay, phenotype converters (AID 1240;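 also: 0% = Bcl-B with tracer peptide and DMSO and 100% = tracer peptide lacking Bcl-B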)). Settings: GST-Bcl-B / FITC-TR3 peptide fluorescence polarization; stronger effect = higher value; compound at 3.75 mg/L.
UniProt Q9HD36, sequence (Q9HD36 whole entry, looked up): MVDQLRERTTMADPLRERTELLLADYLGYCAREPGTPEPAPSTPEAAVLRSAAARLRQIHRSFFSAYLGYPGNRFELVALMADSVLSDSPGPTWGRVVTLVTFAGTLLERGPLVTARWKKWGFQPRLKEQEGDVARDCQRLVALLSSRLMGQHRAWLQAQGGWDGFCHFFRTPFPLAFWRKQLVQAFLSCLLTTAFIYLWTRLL

Q: COC(=O)c1ccc(C2C3=C(CC(C)(C)CC3=O)NC3=C2C(=O)CC(C)(C)C3)cc1 was tested. Which displacement did it give?
A: -4.9%

Q: For COc1ccc2c(c1OC)C(=O)OC2CC(=O)c1cc(F)ccc1O (stereo not drawn), which displacement is on record?
A: 1.5%

Q: For CCc1ccccc1NC(=O)CN(c1ccc(Cl)cc1)S(C)(=O)=O, which displacement is on record?
A: 13.6%

Q: With O=C(Nc1ccccc1)N1CCN(C(=O)Nc2ccccc2)CC1 as the molecule, how does the displacement read?
A: -0.7%

Q: COc1ccc(C(=O)Nc2ccccc2C(=O)NC(C(=O)NCc2ccccc2)C(C)C)cc1 (stereo not drawn) was tested. Which displacement did it give?
A: 5.1%

Q: CCN(CC)c1ccc(C(=O)Nc2ccccc2C(F)(F)F)cc1 was tested. Which displacement did it give?
A: 16.8%

Q: Which displacement does the source give for CCOC(=O)C1=C(O)/C(=C\c2cccc3ccccc23)N=C1C here?
A: 10.8%

Q: With Cc1cccc(/C(N)=N/OC(=O)c2ccc(Br)cc2)c1 as the molecule, how does the displacement read?
A: -6.1%

Q: Which displacement does the source give for O=C(O)CCSc1nc2ccccc2n1Cc1ccccc1 here?
A: 3.1%

Q: For O=C(Nc1ccc(Cl)c(Cl)c1)Nc1nnc(Cc2ccc(F)cc2)s1, which displacement is on record?
A: 7.6%

Q: CC(C)(C)c1ccc(C(=O)Nc2sc3c(c2C(N)=O)CCCCCC3)cc1 was tested. Which displacement did it give?
A: -6.1%

Q: CCC(C)(C)C1CCc2c(sc(NC(=O)c3cnccn3)c2C(=O)OC)C1 (stereo not drawn) was tested. Which displacement did it give?
A: 6.1%

Q: With COc1ccc(OC)c(NC(=S)NC(NC(=O)c2ccc(C)cc2)C(Cl)(Cl)Cl)c1 (stereo not drawn) as the molecule, how does the displacement read?
A: -3.8%

Q: With Cc1ccc(SCCNC(=O)/C=C/c2ccccc2Cl)cc1 as the molecule, how does the displacement read?
A: -11%

Q: For O=C(CCc1ccccc1)Nc1c(F)c(F)c(F)c(F)c1F, which displacement is on record?
A: -1.5%

Q: With COc1ccc(CNC(=O)c2cnn3c(C(F)(F)F)cc(-c4ccccc4)nc23)cc1 as the molecule, how does the displacement read?
A: -4.9%

Q: How did the displacement turn out when CC(Oc1ccccc1)C(=O)N1CCC(Cc2ccccc2)CC1 (stereo not drawn) was run?
A: 3.1%

Q: How did the displacement turn out when CNCC(O)COc1ccc(C)cc1C (stereo not drawn) was run?
A: -4.8%

Q: Which displacement does the source give for O=C(NCc1ccc2c(c1)OCO2)c1ccc(F)cc1 here?
A: 11.2%

Q: Which displacement does the source give for COc1ccc(NC(=O)COc2ccc(Br)cc2C(C)(C)C)c(OC)c1 here?
A: 6.6%

Q: Which displacement does the source give for NC(=O)c1ccc(Cl)c(S(=O)(=O)N2CCOCC2)c1 here?
A: -7.7%

Q: For O=C(NCCOc1ccc(F)cc1)c1ccccc1-c1ccccc1, which displacement is on record?
A: 15.4%

Q: How did the displacement turn out when CCc1c(-c2ccc(Cl)s2)nc2ccc(Br)cc2c1C(=O)O was run?
A: -2%

Q: How did the displacement turn out when O=C(NCc1ccccc1)c1cc(-c2ccco2)nc2ccccc12 was run?
A: 34.7%

Q: CCc1ccc(OCCCCCn2ccnc2)cc1 was tested. Which displacement did it give?
A: 5.9%

Q: How did the displacement turn out when COc1ccc(S(=O)(=O)Nc2ccc3c(c2)OCO3)cc1 was run?
A: 6.5%

Q: NC(=O)C1CCN(C(=O)Cc2ccc(Cl)cc2)CC1 was tested. Which displacement did it give?
A: -1.7%

Q: With NC(=O)c1c(NC(=O)c2ccc(Br)o2)sc2c1CCCCC2 as the molecule, how does the displacement read?
A: -1.5%

Q: For O=C1CSC(=S)N1c1ccccc1C(F)(F)F, which displacement is on record?
A: -0.7%

Q: CCCCN1C(=O)/C(=C/c2cccc3ccccc23)SC1=S was tested. Which displacement did it give?
A: 3.1%

Q: Cc1sc2nc(SCC(=O)NCCCn3ccnc3)[nH]c(=O)c2c1C was tested. Which displacement did it give?
A: -7%

Q: How did the displacement turn out when C=CCOc1ccc(/C=C2/SC(=O)NC2=O)cc1Br was run?
A: -10.8%

Q: With COc1ccc(N(CC(=O)Nc2ccc(I)cc2)S(=O)(=O)c2ccccc2)cc1 as the molecule, how does the displacement read?
A: -2%

Q: With c1ccc2c(c1)nc(N1CCOCC1)c1nncn12 as the molecule, how does the displacement read?
A: 4.7%

Q: With c1ccc(Oc2cccc(CSc3nnc4c(n3)[nH]c3ccccc34)c2)cc1 as the molecule, how does the displacement read?
A: 46.6%

Q: With CC(NC(=O)c1ccccc1)c1ccc(Cl)c(Cl)c1 (stereo not drawn) as the molecule, how does the displacement read?
A: -5.8%

Q: With Cc1cccc(CC2CC(=O)N(c3ccc(/C=C/C(=O)O)cc3)C2=O)c1 (stereo not drawn) as the molecule, how does the displacement read?
A: 10%

Q: For O=C(Nc1ccccc1)Nc1nnc(CSCc2ccc(Cl)cc2)s1, which displacement is on record?
A: 1.8%

Q: Which displacement does the source give for Cc1nc(C=C2C(=O)C=Cc3ccccc32)c(O)o1 here?
A: 2%

Q: With Cc1ccc(OCC(=O)N2CCC(C(N)=O)CC2)cc1 as the molecule, how does the displacement read?
A: -10.1%

Q: O=C(Nc1ccc(S(=O)(=O)N2CCCCCC2)cc1)C(F)(F)F was tested. Which displacement did it give?
A: 4.2%

Q: How did the displacement turn out when COc1ccc2c(c1)nc(SCC(=O)c1ccc(OC)c(OC)c1)n2Cc1ccccc1 was run?
A: 6.5%

Q: Cc1onc(-c2ccccc2Cl)c1C(=O)NCCNc1c(Cl)cccc1[N+](=O)[O-] was tested. Which displacement did it give?
A: 14.1%

Q: CCC(=O)N1CCN(c2cc(N3CCCCC3)c(F)cc2[N+](=O)[O-])CC1 was tested. Which displacement did it give?
A: -5.8%

Q: With CC(C)(C)NC(=O)c1nn2c(C(F)(F)F)cc(-c3ccccc3)nc2c1Br as the molecule, how does the displacement read?
A: 13%

Q: Which displacement does the source give for COc1ccccc1NC(=O)CCCC(=O)OCC(F)(F)C(F)F here?
A: 1%

Q: For CCN(Cc1ccccc1)C(=O)c1ccc(SC)cc1OC, which displacement is on record?
A: -7.7%

Q: How did the displacement turn out when CC12CCCCC1C2C(=O)N/N=C\c1ccc(Cl)cc1Cl (stereo not drawn) was run?
A: 19.4%

Q: Which displacement does the source give for COc1cc(Cl)cc(/C=C2/C(=O)NC(=O)N(c3ccc(C)cc3)C2=O)c1O here?
A: -12.7%

Q: For CCCCOc1ccc(NC(=O)CSc2nnnn2-c2ccccc2)cc1, which displacement is on record?
A: 11.6%

Q: For Cc1cc(Cl)ccc1NC(=O)c1cccc([N+](=O)[O-])c1C, which displacement is on record?
A: -4.1%

Q: Cc1ccc2oc(-c3cc(N)ccc3Cl)nc2c1 was tested. Which displacement did it give?
A: -3%

Q: Which displacement does the source give for Cc1cccc(C(=O)Nc2cc(C)on2)c1 here?
A: -1.2%

Q: For Cc1noc([N+](=O)[O-])c1C=Cc1c(C)nn(-c2ccccc2)c1C, which displacement is on record?
A: -4.6%

Q: With Cc1ccc(-c2noc(-c3cccc([N+](=O)[O-])c3C)n2)cc1 as the molecule, how does the displacement read?
A: 6.9%

Q: How did the displacement turn out when CCCc1ccc(-c2nc(-c3cc(OC)c(OC)c(OC)c3)no2)cc1 was run?
A: -7%

Q: With Cc1cccc(C)c1NC(=O)CC(C)c1ccccc1 (stereo not drawn) as the molecule, how does the displacement read?
A: 5.5%

Q: Which displacement does the source give for CCc1ccc(N2CC(C(=O)Nc3cccc(C(F)(F)F)c3)CC2=O)cc1 (stereo not drawn) here?
A: 5.6%

Q: CCOC(=O)c1sc(NC(=O)COc2cc(Cl)ccc2Cl)c(C(=O)OCC)c1C was tested. Which displacement did it give?
A: 0.4%

Q: How did the displacement turn out when CSc1ccc(/C=N/NC(=O)COc2ccccc2C)cc1 was run?
A: 12.6%

Q: CCN(CC)C(=O)c1sc(NC(=O)CCCOc2ccc(Cl)cc2C)c(C(=O)OC)c1C was tested. Which displacement did it give?
A: 4%

Q: With COC(=O)C(C(=O)OC)C(=O)c1ccc(C)cc1 as the molecule, how does the displacement read?
A: -13.8%

Q: With Nc1nnc(/C=C/c2ccccc2)s1 as the molecule, how does the displacement read?
A: 6.2%

Q: For CCSc1nnc(NC(=O)c2ccc(Br)cc2)s1, which displacement is on record?
A: -6.2%

Q: How did the displacement turn out when O=S(Cc1ccc(Cl)cc1)CC(O)COc1ccccc1 (stereo not drawn) was run?
A: 0.3%

Q: Which displacement does the source give for O=C(O)CC1S/C(=N/N=C/c2cccc(O)c2)NC1=O (stereo not drawn) here?
A: -34.7%

Q: Which displacement does the source give for COc1ccc(C2c3c(-c4ccccc4)n[nH]c3C(=O)N2c2ccccc2)cc1 (stereo not drawn) here?
A: -3.9%

Q: O=S(=O)([O-])CCC[n+]1cnc2ncc3c(n21)/C(=C/c1ccccc1)CCC3 was tested. Which displacement did it give?
A: -3.8%

Q: For O=C(Nc1ccccc1C(=O)Nc1ccc(Br)cn1)c1ccccc1, which displacement is on record?
A: -7.9%

Q: With CC1(C)Cc2c(sc3nc(SCCc4ccccc4)n(CCc4ccccc4)c(=O)c23)CO1 as the molecule, how does the displacement read?
A: -2.5%

Q: Which displacement does the source give for COc1ccccc1OCCn1cc(/C=C2/SC(=S)N(Cc3ccccc3)C2=O)c2ccccc21 here?
A: 112%

Q: C=C(C)C1CC=C(C)/C(=N/NC(N)=O)C1 (stereo not drawn) was tested. Which displacement did it give?
A: -7.9%

Q: With Cc1cc(Cl)ccc1OCC(=O)N1CCN(c2ccccn2)CC1 as the molecule, how does the displacement read?
A: -8.1%
